According to the supplement of paper PMC8728848:
The list shows a part of the results.

Tests used:
Assay in all cases: glycan array binding signal (z-score within array); higher = stronger binding
Settings in all cases: glycan notation: IUPAC condensed, linker removed; mutation: R343I
Gal3S(b1-4)GlcNAc6S = target: Gal3S(b1-4)GlcNAc6S
How it was run: (§1)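 Glycan array binding is given as a within-array Z-score, which can be read as non-binding when negative. The arrays, 3228 of them, came from the Consortium for Functional Glycomics database and were retained only where the protein sequence was available. Z-scores were averaged across arrays of the same protein sequence at different concentrations or buffers and across linkers.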

[1] = target: Gal3S(b1-4)[Fuc(a1-3)]Glc
How it was run: as §1

Gal3S4S(b1-4)GlcNAc = target: Gal3S4S(b1-4)GlcNAc
How it was run: as §1

Gal3S6S(b1-4)GlcNAc = target: Gal3S6S(b1-4)GlcNAc
How it was run: as §1

Gal3S6S(b1-4)GlcNAc6S = target: Gal3S6S(b1-4)GlcNAc6S
How it was run: as §1

Gal4S(b1-4)GlcNAc = target: Gal4S(b1-4)GlcNAc
How it was run: as §1

Gal4S6S(b1-4)GlcNAc = target: Gal4S6S(b1-4)GlcNAc
How it was run: as §1

Gal6S(b1-4)Glc = target: Gal6S(b1-4)Glc
How it was run: as §1

Gal6S(b1-4)Glc6S = target: Gal6S(b1-4)Glc6S
How it was run: as §1

Gal6S(b1-4)GlcNAc = target: Gal6S(b1-4)GlcNAc
How it was run: as §1

Gal6S(b1-4)GlcNAc6S = target: Gal6S(b1-4)GlcNAc6S
How it was run: as §1

GalNAc(a1-3)Gal = target: GalNAc(a1-3)Gal
How it was run: as §1

GalNAc(a1-3)GalNAc = target: GalNAc(a1-3)GalNAc
How it was run: as §1

GalNAc(b1-3)Gal = target: GalNAc(b1-3)Gal
How it was run: as §1

[2] = target: GalNAc(b1-3)Gal(a1-4)Gal(b1-4)GlcNAc
How it was run: as §1

GalNAc(b1-3)GalNAc = target: GalNAc(b1-3)GalNAc
How it was run: as §1

GalNAc(b1-4)GlcNAc = target: GalNAc(b1-4)GlcNAc
How it was run: as §1

Glc(a1-4)Glc = target: Glc(a1-4)Glc
How it was run: as §1

Glc(a1-6)Glc(a1-6)Glc = target: Glc(a1-6)Glc(a1-6)Glc
How it was run: as §1

Glc(b1-4)Glc = target: Glc(b1-4)Glc
How it was run: as §1

Glc(b1-6)Glc = target: Glc(b1-6)Glc
How it was run: as §1

GlcA(b1-3)Gal = target: GlcA(b1-3)Gal
How it was run: as §1

GlcA(b1-3)GlcNAc = target: GlcA(b1-3)GlcNAc
How it was run: as §1

GlcA(b1-6)Gal = target: GlcA(b1-6)Gal
How it was run: as §1

[3] = target: GlcNAc(a1-3)Gal(b1-4)GlcNAc
How it was run: as §1

[4] = target: GlcNAc(a1-6)Gal(b1-4)GlcNAc
How it was run: as §1

[5] = target: GlcNAc(b1-2)Gal(b1-3)GalNAc
How it was run: as §1

[6] = target: GlcNAc(b1-2)Man(a1-3)[GlcNAc(b1-2)Man(a1-6)]Man(b1-4)GlcNAc(b1-4)GlcNAc
How it was run: as §1

GlcNAc(b1-3)Gal = target: GlcNAc(b1-3)Gal
How it was run: as §1

[7] = target: GlcNAc(b1-3)Gal(b1-3)GalNAc
How it was run: as §1

GlcNAc(b1-3)Gal(b1-4)Glc = target: GlcNAc(b1-3)Gal(b1-4)Glc
How it was run: as §1

[8] = target: GlcNAc(b1-3)Gal(b1-4)GlcNAc
How it was run: as §1

[9] = target: GlcNAc(b1-3)Gal(b1-4)GlcNAc(b1-3)Gal(b1-4)GlcNAc
How it was run: as §1

GlcNAc(b1-3)GalNAc = target: GlcNAc(b1-3)GalNAc
How it was run: as §1

GlcNAc(b1-3)Man = target: GlcNAc(b1-3)Man
How it was run: as §1

[10] = target: GlcNAc(b1-3)[GlcNAc(b1-4)][GlcNAc(b1-6)]GlcNAc
How it was run: as §1

[11] = target: GlcNAc(b1-3)[GlcNAc(b1-6)]Gal(b1-4)GlcNAc
How it was run: as §1

B1: Surfactant Protein D (Human); Neck + Carbohydrate Recognition Domain (NCRD) (Homo sapiens) (protein)
chain: MLLFLLSALVLLTQPLGYLEAEMKTYSHRTMPSACTLVMCSSVESGLPGRDRDGREGPRGEKGDPGLPGAAGQAGMPGQAGPVGPKGDNGSVGEPGPKGDTGPSGPPGPPGVPGPAGREGALGKQGNIGPQGKPGPKGEAGPKGEVGAPGMQGSAGARGLAGPKGERGVPGERGVPGNTGAAGSAGAMGPQGSPGARGPPGLKGDKGIPGDKGAKGESGLPDVASLRQQVEALQGQVQHLQAAFSQYKKVELFPNGQSVGEKIFKTAQFVKPFTEAQLLCTQAGGQLASPRSAAENAALQQLVVAKNEAAFLSMTDSKTEGKFTYPTGESLVYSNWAPGEPNDDGGSEDCVEIFTNGKWNDIACGEKRLVVCEF
- glycan array binding signal (z-score) (Gal3S(b1-4)GlcNAc6S): -0.27
- glycan array binding signal (z-score) [1]: -0.266
- glycan array binding signal (z-score) (Gal3S4S(b1-4)GlcNAc): -0.265
- glycan array binding signal (z-score) (Gal3S6S(b1-4)GlcNAc): -0.262
- glycan array binding signal (z-score) (Gal3S6S(b1-4)GlcNAc6S): -0.264
- glycan array binding signal (z-score) (Gal4S(b1-4)GlcNAc): -0.269
- glycan array binding signal (z-score) (Gal4S6S(b1-4)GlcNAc): -0.267
- glycan array binding signal (z-score) (Gal6S(b1-4)Glc): -0.262
- glycan array binding signal (z-score) (Gal6S(b1-4)Glc6S): -0.258
- glycan array binding signal (z-score) (Gal6S(b1-4)GlcNAc): -0.268
- glycan array binding signal (z-score) (Gal6S(b1-4)GlcNAc6S): -0.273
- glycan array binding signal (z-score) (GalNAc(a1-3)Gal): -0.276
- glycan array binding signal (z-score) (GalNAc(a1-3)GalNAc): -0.277
- glycan array binding signal (z-score) (GalNAc(b1-3)Gal): -0.272
- glycan array binding signal (z-score) [2]: -0.249
- glycan array binding signal (z-score) (GalNAc(b1-3)GalNAc): -0.257
- glycan array binding signal (z-score) (GalNAc(b1-4)GlcNAc): -0.27
- glycan array binding signal (z-score) (Glc(a1-4)Glc): -0.192
- glycan array binding signal (z-score) (Glc(a1-6)Glc(a1-6)Glc): -0.229
- glycan array binding signal (z-score) (Glc(b1-4)Glc): -0.276
- glycan array binding signal (z-score) (Glc(b1-6)Glc): -0.25
- glycan array binding signal (z-score) (GlcA(b1-3)Gal): -0.273
- glycan array binding signal (z-score) (GlcA(b1-3)GlcNAc): -0.275
- glycan array binding signal (z-score) (GlcA(b1-6)Gal): -0.266
- glycan array binding signal (z-score) [3]: 1.21
- glycan array binding signal (z-score) [4]: -0.261
- glycan array binding signal (z-score) [5]: -0.277
- glycan array binding signal (z-score) [6]: 5.45
- glycan array binding signal (z-score) (GlcNAc(b1-3)Gal): -0.281
- glycan array binding signal (z-score) [7]: -0.238
- glycan array binding signal (z-score) (GlcNAc(b1-3)Gal(b1-4)Glc): -0.116
- glycan array binding signal (z-score) [8]: 0.166
- glycan array binding signal (z-score) [9]: -0.027
- glycan array binding signal (z-score) (GlcNAc(b1-3)GalNAc): -0.253
- glycan array binding signal (z-score) (GlcNAc(b1-3)Man): -0.076
- glycan array binding signal (z-score) [10]: 0.573
- glycan array binding signal (z-score) [11]: 1.31
